# Laboratory results taken from the supplement of paper PMC3724861.
# The other results are listed elsewhere or left out.
# System: T1, Caupolican (Caup) homeodomain DNA-binding domain
# T1 sequence: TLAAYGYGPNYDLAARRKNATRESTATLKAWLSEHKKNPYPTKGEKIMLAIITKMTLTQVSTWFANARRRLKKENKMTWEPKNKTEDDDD
# Assay: PBM E-score (8-mer, recovered from the published 9-mer minima) (E-score (dimensionless, -0.5 to 0.5)); Drosophila protein; higher = stronger relative binding preference, active = 0.31 or more
# How it was run: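 An enrichment score, with higher meaning stronger, expresses relative binding preference for each short DNA word. The protein used was Caup's homeodomain DNA-binding domain (residues 214-303), produced by in vitro transcription and translation and tested at 100 nM on custom-designed protein binding microarrays. The 8-mer values were recovered from published 9-mer scores, each equal to the lower of its two constituent 8-mer scores.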
row,Sequence,PBM E-score
1,ATTCAAGA,inactive: 0.0729
2,AGTTGGGG,inactive: -0.151
3,CCAGGCCG,inactive: -0.222
4,AGAGAGCT,inactive: -0.18
5,CGCACATA,inactive: -0.0111
6,CAAAAGGA,inactive: 0.0369
7,AAGTACAC,inactive: 0.288
8,CTCGTCTA,inactive: -0.0219
9,AACGGCTA,inactive: -0.0183
10,AAGCAATA,inactive: 0.0658
11,ATAGGCCC,inactive: -0.176
12,GTCCTCAC,inactive: -0.0666
13,CGCTAGTC,inactive: -0.0708
14,GGCAGAAA,inactive: -0.00752
15,CGTTGTAC,inactive: 0.307
16,AGGAGAAC,inactive: -0.0211
17,ATGGAGTA,inactive: 0.109
18,GCGTATAC,inactive: 0.0984
19,GGTCAGCA,inactive: -0.0274
20,CCGCATAC,inactive: -0.0411
21,ATCCAGCA,inactive: 0.0163
22,CTCAAGGC,inactive: -0.0901
23,ATACACTC,inactive: 0.117
24,GACGCGGA,inactive: -0.0916
25,CAACGTCG,inactive: 0.0558

row,Sequence,PBM E-score
1,ATCCCATG,inactive: 0.115
2,ATGTGCTC,inactive: 0.118
3,CGGGTCCC,inactive: -0.327
4,AATTCTGA,inactive: 0.0526
5,GTCCTCAA,inactive: -0.00054
6,TAAGCACA,inactive: 0.0723
7,GTGAGGGA,inactive: -0.149
8,GGTTTGGA,inactive: -0.00066
9,CCATTTTC,inactive: 0.0244
10,AGTTATGC,inactive: -0.0412
11,ACAGCACC,inactive: -0.0021
12,ACCGCCTA,inactive: -0.0971
13,ACCAAGCA,inactive: 0.042
14,ACAGCCGG,inactive: -0.0197
15,CATATTAA,inactive: 0.269
16,ATGTCTGA,inactive: 0.249
17,CAGTGAAA,inactive: 0.00891
18,ACTGTTAC,inactive: 0.192
19,AAGCTCGA,inactive: -0.00155
20,CGCATGTA,active: 0.352
21,CGTACAAG,active: 0.37
22,CTAATTCA,inactive: 0.0803
23,AGTTATAA,inactive: 0.164
24,ATGTCGTG,active: 0.316
25,AAGTGACG,inactive: 0.023

row,Sequence,PBM E-score
1,GAAAGTAA,inactive: 0.0183
2,ACCGCCAG,inactive: -0.145
3,CGCTAAAA,≥ 0.0305
4,GTGCGCAC,inactive: -0.00225
5,CCCATAGA,inactive: -0.0639
6,AAGAGCAA,inactive: -0.0342
7,ACATCGGT,≥ 0.166
8,CATTGAAC,inactive: 0.11
9,ACCTCAAG,inactive: -0.0487
10,TAAAGTAA,inactive: 0.152
11,AATGACAT,inactive: 0.298
12,AGCGTCAC,inactive: -0.104
13,CTTCATGC,inactive: -0.0768
14,GTTCTATA,inactive: 0.0984
15,AGATCAGG,inactive: -0.0683
16,CTTGACCC,inactive: -0.103
17,ATGATTCC,≥ 0.136
18,GAGTCGAA,inactive: -0.0477
19,TCCTAGGA,inactive: -0.0852
20,TGGGATAA,inactive: 0.0307
21,ACTTTACC,inactive: 0.122
22,TATGCACA,inactive: 0.154
23,GATATTCC,inactive: -0.00393
24,GGCGCGTA,inactive: -0.163
25,CGCATATA,inactive: 0.107

row,Sequence,PBM E-score
1,CCCCCCTA,inactive: -0.314
2,AGAGCTCG,inactive: -0.128
3,AGGCTTGC,inactive: -0.142
4,GTCTCGGA,inactive: -0.0363
5,ATCGGTCC,inactive: -0.177
6,CCTGATAG,inactive: -0.0364
7,ACACTTCA,≥ 0.141
8,CCAGCATA,inactive: 0.0366
9,AGTCAAAA,inactive: -0.0112
10,CTTCAGGA,inactive: -0.143
11,CTGGAAAA,inactive: 0.0154
12,ACCACAGC,inactive: -0.0244
13,GGGTCCAC,inactive: -0.23
14,AACTCGGC,inactive: 0.0026
15,ACTGCAGA,inactive: 0.0173
16,CTGCGGAC,inactive: -0.0386
17,CTAGTTAA,inactive: 0.134
18,AGATAGGC,inactive: -0.0502
19,TGGAGCCA,inactive: -0.17
20,CCTCGTCG,inactive: -0.0451
21,CAGGGGTC,inactive: -0.144
22,CGAGTCCG,inactive: -0.114
23,CGACAGAG,inactive: -0.0272
24,AAGACTGG,inactive: 0.0707
25,TACTAAGA,inactive: 0.127

row,Sequence,PBM E-score
1,CGCGTAGA,inactive: -0.0776
2,AGAAGTAT,inactive: 0.0854
3,ACCGAAGG,inactive: -0.176
4,GAGGTGGA,inactive: -0.0796
5,GCCGAGGA,inactive: -0.0401
6,AGAAGGTC,inactive: -0.00854
7,GGAGCAGA,inactive: -0.146
8,CAATAGAG,inactive: -0.0408
9,ACGTGCCG,inactive: -0.0445
10,CATACCTA,inactive: 0.108
11,AGCACGGG,inactive: -0.0941
12,CCCCCGGG,inactive: -0.317
13,TCGTGACA,inactive: 0.231
14,ACTAAGCC,inactive: -0.113
15,CCATATCG,inactive: -0.00323
16,TAGATTGA,inactive: 0.0377
17,ACCCTTCA,≥ 0.0181
18,CCTTATAG,inactive: 0.0564
19,CAATAACC,inactive: 0.0238
20,ATGCCGGA,inactive: -0.132
21,TAAGGGTA,inactive: 0.00713
22,GGCCGGTA,inactive: -0.076
23,TCTCCCCA,inactive: -0.186
24,TACCCACA,inactive: 0.0269
25,GAAACAGA,inactive: 0.0865

row,Sequence,PBM E-score
1,GTGGAACA,inactive: 0.138
2,CTGCCGGC,inactive: -0.235
3,AGAGGAGA,inactive: -0.101
4,CAACGAAC,inactive: 0.0555
5,AGAAATTA,inactive: 0.0774
6,CAAGCGGG,inactive: -0.167
7,AACTACTT,inactive: 0.164
8,GGGGTCAC,inactive: -0.239
9,CACAGGTA,inactive: 0.135
10,CTACCTAC,inactive: 0.0849
11,CTGCCGGA,inactive: -0.102
12,GCAGGCTA,inactive: -0.201
13,ACGTGGGC,inactive: -0.0878
14,CACCTTGG,inactive: -0.0652
15,AAATTGGT,inactive: 0.142
16,GTGTGGCA,inactive: -0.136
17,ATCTTCAG,inactive: 0.0301
18,ATTTCCGG,inactive: 0.0326
19,CTCGATTC,inactive: -0.0509
20,GCAAGTAA,inactive: 0.173
21,ATCTGTCA,inactive: 0.151
22,AACCGAAT,inactive: 0.0717
23,CGGGTGGA,inactive: -0.134
24,TCGGTTAA,inactive: 0.0121
25,ACGCCGAC,inactive: -0.0675

row,Sequence,PBM E-score
1,AAATATCC,inactive: 0.062
2,CTGCGAGC,inactive: -0.145
3,ACTGAGAC,inactive: 0.0401
4,ATGGCTTC,inactive: -0.0417
5,ATTACGCC,inactive: -0.029
6,ATGCCGAG,inactive: 0.0061
7,CCGGCTCA,inactive: -0.123
8,GTAAATTA,inactive: 0.198
9,CAGGCCGC,inactive: -0.255
10,ACCTTCAG,inactive: -0.0653
11,ACAGACTA,inactive: 0.0883
12,ACCAGAAG,inactive: 0.0587
13,TGGTTACA,inactive: 0.267
14,ATACCTTC,inactive: 0.0341
15,CACACGAA,inactive: 0.0926
16,CTTCTTTA,inactive: -0.00368
17,AAACCCGC,inactive: -0.125
18,CGTATGAA,inactive: 0.0471
19,ATGCAATC,inactive: 0.105
20,ATTCCAAT,inactive: 0.0698
21,AAGGCGCG,inactive: -0.205
22,AGAATGGG,inactive: -0.0878
23,AAACGGTC,inactive: -0.068
24,CCTATGGC,inactive: -0.138
25,AACGAAGA,inactive: -0.00414

row,Sequence,PBM E-score
1,CTCCTTGC,inactive: -0.108
2,GGCCGAAA,inactive: -0.0199
3,AAAACGTG,inactive: 0.0311
4,AAGATCGG,inactive: -0.197
5,GCGGTAAC,inactive: 0.0415
6,ACTCAGGA,inactive: -0.0584
7,GCCGCGCA,inactive: -0.289
8,AATCCCGT,inactive: 0.11
9,TCGTAACA,inactive: 0.295
10,GATGTAAA,inactive: 0.305
11,GGCCGCAC,inactive: -0.215
12,AGGATCTA,inactive: -0.0004
13,GGAAAAGA,inactive: 0.0764
14,ATTACGGA,inactive: 0.0876
15,CACTAAAA,inactive: 0.00931
16,CGTTAAAC,inactive: 0.116
17,CCCTTAGC,inactive: -0.228
18,AGGGAAAC,inactive: -0.098
19,ATGGAACA,inactive: 0.263
20,AGAGGTAA,inactive: 0.00183
21,GATCCGAA,inactive: -0.0353
22,TATGATCA,inactive: 0.167
23,AAAGGTAA,inactive: 0.0668
24,ATAACAAG,active: ≥ 0.373
25,TCTTTCCA,inactive: -0.0573

row,Sequence,PBM E-score
1,CCAGCCCG,inactive: -0.241
2,CCTACAGG,inactive: -0.0711
3,ATATTTGG,inactive: 0.122
4,GACTACGC,inactive: -0.0482
5,ACTATCCG,inactive: 0.0872
6,CTCCGGAA,inactive: -0.126
7,AATTCAAC,inactive: 0.0988
8,CGATGGAC,inactive: 0.00441
9,CACCGGCC,inactive: -0.176
10,GGGCAGAC,inactive: -0.216
11,CTCACTGA,inactive: -0.0918
12,CAAAAGAG,inactive: -0.0329
13,AATCGGCA,inactive: -0.0218
14,ACTTTCGA,inactive: -0.0323
15,GCGTACGC,inactive: -0.112
16,AAAAGTTA,inactive: 0.0938
17,GGCAGTGA,inactive: -0.149
18,CGAACGGC,inactive: -0.138
19,ATTGAATA,inactive: 0.166
20,ATTAGACG,inactive: -0.0112
21,GAGCAACC,inactive: -0.0086
